{
  "source": "paper PMC4336329",
  "about": "(PLoS ONE, 2015)",
  "note": "The whole screen tested about 310,000 compounds, of which about 14,000 (4.5%) showed an effect of 50% or more. Effects have a minus sign here. The list shows a part of the results.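 Further: peak tail current of the secondary pulse compared with the same well before compound.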",
  "data": [
    {"target": "human ether-à-go-go-related gene (hERG) potassium channel (human, UniProt Q12809)", "sequence (Q12809 whole entry, looked up)": "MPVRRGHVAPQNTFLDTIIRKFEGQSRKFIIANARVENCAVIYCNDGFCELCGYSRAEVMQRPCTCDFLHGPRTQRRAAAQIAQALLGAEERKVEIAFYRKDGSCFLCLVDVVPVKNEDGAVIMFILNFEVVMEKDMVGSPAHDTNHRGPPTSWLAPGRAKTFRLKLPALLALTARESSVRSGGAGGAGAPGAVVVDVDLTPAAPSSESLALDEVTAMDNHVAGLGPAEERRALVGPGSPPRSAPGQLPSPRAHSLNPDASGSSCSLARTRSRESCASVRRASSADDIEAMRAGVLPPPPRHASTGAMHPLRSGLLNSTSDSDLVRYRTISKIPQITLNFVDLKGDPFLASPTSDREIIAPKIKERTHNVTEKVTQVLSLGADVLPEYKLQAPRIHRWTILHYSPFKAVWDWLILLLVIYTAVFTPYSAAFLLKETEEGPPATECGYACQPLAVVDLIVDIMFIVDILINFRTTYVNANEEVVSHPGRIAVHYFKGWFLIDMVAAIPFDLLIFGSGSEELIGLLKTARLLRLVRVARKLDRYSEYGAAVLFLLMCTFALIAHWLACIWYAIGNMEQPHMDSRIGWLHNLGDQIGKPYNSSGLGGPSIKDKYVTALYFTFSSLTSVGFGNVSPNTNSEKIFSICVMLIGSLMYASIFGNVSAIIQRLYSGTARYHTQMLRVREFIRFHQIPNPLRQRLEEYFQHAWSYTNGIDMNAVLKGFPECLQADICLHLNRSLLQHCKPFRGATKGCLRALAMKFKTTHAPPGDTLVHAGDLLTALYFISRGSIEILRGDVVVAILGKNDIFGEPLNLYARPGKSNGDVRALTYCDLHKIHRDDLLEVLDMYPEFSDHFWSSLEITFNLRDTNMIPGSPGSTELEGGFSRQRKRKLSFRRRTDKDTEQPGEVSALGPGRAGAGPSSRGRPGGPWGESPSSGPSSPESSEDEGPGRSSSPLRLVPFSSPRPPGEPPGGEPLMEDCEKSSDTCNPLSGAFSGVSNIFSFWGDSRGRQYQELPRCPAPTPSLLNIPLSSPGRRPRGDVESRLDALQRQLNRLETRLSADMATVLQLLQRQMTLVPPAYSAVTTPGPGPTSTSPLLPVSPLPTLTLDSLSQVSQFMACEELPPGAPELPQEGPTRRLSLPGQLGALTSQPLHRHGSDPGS", "assay": "primary screen, population patch clamp on CHO cells stably expressing hERG", "units": {"hERG current change (%, negative = inhibition) at 10uM": "%"}, "values": [
      {"smiles": "O=C(NC(Cc1cnc[nH]1)C(=O)O)c1ccccc1", "note": "(centres unmarked)", "hERG current change (%, negative = inhibition) at 10uM": 6.1},
      {"smiles": "CCOc1ccc(N(C(=O)CNC(=O)c2ccco2)C(C(=O)NC2CCCC2)c2cccnc2)cc1", "note": "(centres unmarked)", "hERG current change (%, negative = inhibition) at 10uM": 13.4},
      {"smiles": "Cc1cc(C)cc(NC(=O)c2ccc(CN3CCc4ccccc4C3)cc2)c1", "hERG current change (%, negative = inhibition) at 10uM": -15.3},
      {"smiles": "O=c1c2ccccc2c(-c2ccc(Br)cc2)nn1Cc1ccccc1", "hERG current change (%, negative = inhibition) at 10uM": 5.58},
      {"smiles": "N#Cc1cccc(Oc2ccc(-c3cnc4ccccc4n3)cc2)c1C#N", "hERG current change (%, negative = inhibition) at 10uM": 2.61},
      {"smiles": "N#C/C(=C/c1ccc(N2CCCCC2)o1)C(=O)NCCc1c[nH]c2ccccc12", "hERG current change (%, negative = inhibition) at 10uM": 0.553},
      {"smiles": "CCOc1ccc(C(=O)N(c2ccccn2)C2CCCCC2)cc1", "hERG current change (%, negative = inhibition) at 10uM": 10.5},
      {"smiles": "CCOc1ccc(N(CC(=O)Nc2cccnc2)S(=O)(=O)c2ccc(C)cc2)cc1", "hERG current change (%, negative = inhibition) at 10uM": -5.5},
      {"smiles": "CCOc1ccccc1-c1cc(C(=O)N/N=C/c2cccnc2)c2ccccc2n1", "hERG current change (%, negative = inhibition) at 10uM": -6.35},
      {"smiles": "Cc1sc2nc(CN3CCCCC3)nc(N3CCN(C(=O)c4ccco4)CC3)c2c1C", "hERG current change (%, negative = inhibition) at 10uM": -75},
      {"smiles": "CSc1ncc(CNc2cc([N+](=O)[O-])ccc2C)c(N)n1", "hERG current change (%, negative = inhibition) at 10uM": -24.2},
      {"smiles": "CCOc1ccc(C2CC(c3ccccc3C)n3nc(N)nc3N2)cc1", "note": "(centres unmarked)", "hERG current change (%, negative = inhibition) at 10uM": 8.79},
      {"smiles": "CCc1ccc(N2CC(C(=O)Nc3cccnc3)CC2=O)cc1", "note": "(centres unmarked)", "hERG current change (%, negative = inhibition) at 10uM": -6.3},
      {"smiles": "CCOC(=O)C1=C(C)NC2(O)c3ccccc3C(=O)C12O", "note": "(centres unmarked)", "hERG current change (%, negative = inhibition) at 10uM": -2.65},
      {"smiles": "O=C(O)c1ccc2nc(-c3ccccc3)c(-c3ccccc3)nc2c1", "hERG current change (%, negative = inhibition) at 10uM": 8.03},
      {"smiles": "Cc1ccc(/C(O)=C/c2nc3ccccc3oc2=O)cc1", "hERG current change (%, negative = inhibition) at 10uM": 5.9},
      {"smiles": "CCOC(=O)C1CCN(C(=O)c2ccc(NC(=O)C3CCCO3)cc2)CC1", "note": "(centres unmarked)", "hERG current change (%, negative = inhibition) at 10uM": -9.35},
      {"smiles": "CC(C)(C)C(=O)Nc1ccc(-c2cn3cccnc3n2)cc1", "hERG current change (%, negative = inhibition) at 10uM": -5.74},
      {"smiles": "Cc1cc(C)cc(NC2=NC3(CCCCC3)N=C(N)N2)c1", "hERG current change (%, negative = inhibition) at 10uM": 2.04},
      {"smiles": "COc1cc2c(cc1OC)N1C(=O)CC(OCC(=O)O)C3C4CC5(CCN5C(=O)C4=O)C2C31", "note": "(centres unmarked)", "hERG current change (%, negative = inhibition) at 10uM": 29},
      {"smiles": "O=C(Nc1ccc(CN2CCOCC2)cc1)c1cccc(F)c1", "hERG current change (%, negative = inhibition) at 10uM": -5.24},
      {"smiles": "S=c1nc(NCc2ccc3c(c2)OCO3)c2ccccc2[nH]1", "hERG current change (%, negative = inhibition) at 10uM": 15.4},
      {"smiles": "Cc1ccc(CNC(=O)C2CCN(C(=O)c3cccc(Cl)c3)CC2)cc1", "hERG current change (%, negative = inhibition) at 10uM": -8.78},
      {"smiles": "Cc1ncc([N+](=O)[O-])n1CC(=O)Nc1cc(Cl)ccc1Cl", "hERG current change (%, negative = inhibition) at 10uM": 17.3},
      {"smiles": "Cc1occc1C(=O)NC1CCCN(Cc2ccc(Cl)cc2)C1", "note": "(centres unmarked)", "hERG current change (%, negative = inhibition) at 10uM": -38.4},
      {"smiles": "CS(=O)(=O)N(CC(=O)Nc1ccc(S(=O)(=O)N2CCCC2)cc1)c1cccc(F)c1", "hERG current change (%, negative = inhibition) at 10uM": -9.92},
      {"smiles": "O=C(O)c1cc(-c2cccs2)nc2ccc(Br)cc12", "hERG current change (%, negative = inhibition) at 10uM": 21},
      {"smiles": "CCOC(=O)c1ccccc1NC(=O)c1ccc(NS(C)(=O)=O)cc1", "hERG current change (%, negative = inhibition) at 10uM": -54.7},
      {"smiles": "O=C(CNC(=O)c1ccccc1F)OC(C(=O)Nc1cc(C(F)(F)F)ccc1Cl)c1ccccc1", "note": "(centres unmarked)", "hERG current change (%, negative = inhibition) at 10uM": 5.27},
      {"smiles": "Cc1ccc(Nc2ccc(S(=O)(=O)N3CCOCC3)cc2[N+](=O)[O-])cc1C", "hERG current change (%, negative = inhibition) at 10uM": -6.97},
      {"smiles": "COc1ccc(CCNC(=O)c2nnn(-c3ccccc3OC)c2N)cc1OC", "hERG current change (%, negative = inhibition) at 10uM": -1.21},
      {"smiles": "CC1CCN(S(=O)(=O)c2ccc(NC(=O)CN3CCCC3)cc2)CC1.O=C(O)C(=O)O", "hERG current change (%, negative = inhibition) at 10uM": -8.37},
      {"smiles": "CCC(=O)NCc1nc2ccccc2n1Cc1ccccc1F", "hERG current change (%, negative = inhibition) at 10uM": -6.97},
      {"smiles": "COc1ccc(C(=O)NC2CCCc3c2cnn3-c2ccc(C)c(C)c2)c(OC)c1OC", "note": "(centres unmarked)", "hERG current change (%, negative = inhibition) at 10uM": -7.05},
      {"smiles": "Cc1ccc(/C=N/NC(=O)C2CC(=O)N(c3ccccc3)C2)s1", "note": "(centres unmarked)", "hERG current change (%, negative = inhibition) at 10uM": -23.5},
      {"smiles": "CC1CCN(C(=O)CSc2nnc(CSc3ncccn3)n2C)CC1", "hERG current change (%, negative = inhibition) at 10uM": 12.6},
      {"smiles": "Cc1ccc(N2CC(C(N)=O)CC2=O)cc1", "note": "(centres unmarked)", "hERG current change (%, negative = inhibition) at 10uM": 4.9},
      {"smiles": "Cc1cc(C=O)c(C)n1-c1cc(C(F)(F)F)ccc1N1CCOCC1", "hERG current change (%, negative = inhibition) at 10uM": -5.79},
      {"smiles": "O=C(CSc1nc2ccccc2[nH]1)NC1CCCC1", "hERG current change (%, negative = inhibition) at 10uM": 15.9},
      {"smiles": "COc1ccc(C(=O)N(CN2CCCC2=O)c2cc(C)on2)cc1OC", "hERG current change (%, negative = inhibition) at 10uM": -12},
      {"smiles": "O=C(CNC(=O)c1sc2ccccc2c1Cl)NCc1cccnc1", "hERG current change (%, negative = inhibition) at 10uM": 4.31},
      {"smiles": "COc1ccc(-n2c(C)cc(C(=O)C[N+]34CCN(CC3)CC4)c2C)cc1.[Cl-]", "hERG current change (%, negative = inhibition) at 10uM": 21.6},
      {"smiles": "O=C1CN(C(=O)CSc2nnnn2-c2ccc(Cl)cc2)c2ccccc2N1", "hERG current change (%, negative = inhibition) at 10uM": -32.9},
      {"smiles": "COc1cc(C)c(C(=O)Oc2cc(C)c(C(=O)O)c(O)c2C)c(O)c1C(=O)O", "hERG current change (%, negative = inhibition) at 10uM": 23.2}
    ]}
  ]
}
